Test results: PubChem BioAssay AID1159614 (National Center for Advancing Translational Sciences (NCATS), 2016)
In all, about 45,000 compounds went through this assay and about 65 (0.1%) were called active. Calls follow the shape of the dose curve; as a rule, active = well fitted activation curve with a large enough effect; inconclusive = small, poorly fitted or top-dose-only effect; inactive = no such curve, though single readings can be large or run the other way. This is one part of the list.

Biological target: Galactocerebrosidase (Homo sapiens) (UniProt P54803)
UniProt P54803, sequence (P54803 whole entry, looked up): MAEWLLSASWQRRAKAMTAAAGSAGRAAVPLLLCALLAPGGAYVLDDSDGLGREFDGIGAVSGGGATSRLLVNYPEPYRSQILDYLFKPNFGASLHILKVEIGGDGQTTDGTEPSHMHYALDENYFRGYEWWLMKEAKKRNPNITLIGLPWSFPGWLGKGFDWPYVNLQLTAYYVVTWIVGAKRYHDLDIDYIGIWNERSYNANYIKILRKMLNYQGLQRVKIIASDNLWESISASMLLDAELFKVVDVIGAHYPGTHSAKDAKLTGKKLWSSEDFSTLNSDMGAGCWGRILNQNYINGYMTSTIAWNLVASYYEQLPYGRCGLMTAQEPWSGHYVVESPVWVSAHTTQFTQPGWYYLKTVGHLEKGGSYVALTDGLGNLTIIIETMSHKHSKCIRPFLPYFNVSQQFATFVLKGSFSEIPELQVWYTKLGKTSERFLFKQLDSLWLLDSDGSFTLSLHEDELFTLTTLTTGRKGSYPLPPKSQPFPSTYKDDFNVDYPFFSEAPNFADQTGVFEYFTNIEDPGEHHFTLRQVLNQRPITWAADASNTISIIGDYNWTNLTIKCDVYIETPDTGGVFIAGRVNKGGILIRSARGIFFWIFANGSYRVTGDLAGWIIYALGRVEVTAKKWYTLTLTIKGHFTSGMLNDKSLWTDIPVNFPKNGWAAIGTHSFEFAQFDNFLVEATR
Test: A Novel Cell-Based Assay to Identify Small Molecules for B -Galactocerebrosidase; also: 0% is about no effect; nearly all actives have a fitted effect of over 65% in size
Details: 145M-Twi-hGALC-G270D cells, HMU-beta-Gal fluorescence, 48 h; series mostly up to 57.5 µM; activation: at the top concentration
Summary of the method: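 qHTS, 1536-well; 145M-Twi-hGALC-G270D cells (WT line also made) in DMEM/F12 + 10% FBS; compound incubation on live cells; HMU-β-gal 0.1 mM final, pH 5.2, NaTC; carbonate stop; fluorescence increase = enhanced residual activity.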

activation, inactive:
COc1ccc2oc(=O)cc(CN3CCN(c4ccccc4F)CC3)c2c1 -16.3%
COc1cccc(CNC(=O)c2ccc(NC(=O)N3CCCCc4ccccc43)cc2)c1 -0.238%
COc1cc2c(cc1OC)n(CC(=O)c1ccc(F)cc1)c(=O)n1nc(CCn3nc(C)cc3C)nc21 -7.82%
CCOC(=O)c1cccc(Nc2ccc3cc(S(=O)(=O)N4CCCCC4)ccc3n2)c1 -8.91%
O=c1c2oc3ccccc3c2n(Cc2ccccc2)c(=O)n1Cc1ccc2c(c1)OCO2 9.48%
Cc1ccc(OCC(=O)Nc2ccc3nn(-c4ccc(Cl)cc4)nc3c2)cc1 -21.1%
Cc1ccc(C)c(NC(=O)Cn2c(=O)n(CCC(=O)NCc3ccc4c(c3)OCO4)c(=O)c3ccccc32)c1 -11.1%
CCCN1CCCc2cc(CN(CCCN3CCOCC3)C(=O)Nc3ccc(CC)cc3)ccc21 10.6%
CCOC(=O)C1CCCN(C(=O)c2ccc3c(c2)N(Cc2ccccc2)C(=O)c2ccccc2S3=O)C1 (centres undefined) 5.24%
COc1cc(C2CC(=O)Nc3c2c(=O)[nH]c2ncnn32)ccc1O (centres undefined) -12.1%
Cc1ccc(-c2nc(SCC(=O)NCC3CCCO3)c(-c3ccc(C)cc3)[nH]2)cc1 (centres undefined) -18.5%
O=C(Nc1cccc(Cl)c1)c1csnn1 -15.8%
Cc1nnc(N2CCN(C(=O)Nc3cccc(C(F)(F)F)c3)CC2)c2nn(-c3ccccc3)c(C)c12 6.29%
NC(=O)c1cc(S(=O)(=O)NCC2CCC(C(=O)Nc3ccc(Cl)cc3)CC2)cs1 (centres undefined) -15.1%
O=C(OCc1cc(=O)n2c3c(sc2n1)CCCC3)c1cccc(NC(=O)c2ccccc2F)c1 -24.3%
COc1ccc(-c2nc3ccccc3n2Cc2ccc(Cl)cc2)cc1 -21.8%
Cc1ccc(C(=O)c2oc3ccccc3c2NC(=O)Cc2coc3c(C)c(C)ccc23)cc1 -19.8%
COc1cc(C)ccc1OCCSc1nnc(-c2ccc(C)cc2)o1 -5.13%
O=C(NCc1ccccc1Cl)c1ccc(NC(=O)N2CCCCc3ccccc32)cc1 -11.1%
Cc1ccc(S(=O)(=O)c2c(Nc3cccc(Cl)c3)sc(C(=O)c3ccc4c(c3)OCO4)c2N)cc1 -7.44%
CCOc1ccc(NC(=O)CSC2=Nc3ccccc3C3=NC(CC(=O)NCc4ccc5c(c4)OCO5)C(=O)N23)cc1 (centres undefined) 13%
CC1CCCCN1CC(=O)N1CCCc2c1c(=O)oc1ccc(OCc3ccccc3)cc21 (centres undefined) -24.6%
O=C(NCCS(=O)(=O)N1CCN(c2ccccc2)CC1)C1CC(=O)N(c2ccccc2)C1 (centres undefined) -24.3%
Cc1cc(Br)ccc1NC(=O)C1(S(=O)(=O)c2ccc(Cl)cc2)CC1 -11.8%
COc1ccccc1C(=O)Nc1ccc(-c2nc3ccccc3s2)c(C)c1 -24.3%
Cc1cccc(NC(=O)CN(C)S(=O)(=O)c2ccc3c(c2)c(=O)n(C)c(=O)n3C)c1 3.09%
COc1cccc(NC(=O)CSC2=Nc3ccccc3C3=NC(CCC(=O)NCc4ccco4)C(=O)N23)c1 (centres undefined) -14%
COc1ccc(-c2nc(CNS(=O)(=O)c3ccc(C)cc3)cs2)cc1 4%
CCOc1ccccc1C(=O)Nc1ccc(S(=O)(=O)N2CCCCC2c2cccnc2)cc1 (centres undefined) -15.3%
COc1ccccc1C(=O)Nc1nnc(S(=O)(=O)N2CCCCCC2)s1 -18%
Cc1ccc(-c2ccc(=O)n(CC(=O)Nc3ccc(F)c(Cl)c3)n2)cc1C -14.4%
CCOc1ccc(CCNc2nc3c(-c4ccc(C)cc4)nnn3c3ccccc23)cc1OCC 2.91%
COc1ccc(C)c2sc(N(Cc3cccnc3)C(=O)CCc3ccccc3)nc12 -11.6%
O=C(Nc1ccc(Cl)c(Cl)c1)C1CC1 -15.9%
CCCn1c(=O)c2sccc2n2c(CCCC(=O)Nc3ccc(C)c(F)c3)nnc12 -11.8%
CCCCN(CC)C(=O)Nc1ccc2c(c1)N(C)C(=O)c1ccccc1S2 -12.7%
COc1ccc(C(=O)N2CCc3cc(OC)c(OC)cc3C2COc2ccccc2OC)cc1 (centres undefined) -19%
CC(=O)Nc1ccc(S(=O)(=O)NC2(C(F)(F)F)NC(=O)N(c3ccc(Cl)cc3)C2=O)cc1 (centres undefined) -16.4%
COC(=O)c1c(C)sc(-c2c(-c3cccc(OC)c3)[nH]c3c2c(=O)[nH]c(=O)n3C)c1O 0.423%
Cc1ccc(C(=O)COC(=O)c2cc(-c3ccc(Cl)cc3)nc3ccccc23)cc1 -1.8%
COc1ccc(-c2noc(CN3CCN(c4ccccc4OC)CC3)n2)cc1OC -12.3%
Cn1cc(S(=O)(=O)c2ccccc2)c(=O)c2cc(F)c(N3CCCCC3)cc21 -18.7%
Cc1noc2nc(C(=O)O)nc(N3CCCCC3)c12 -2.72%
COc1ccc(OC)c(-c2noc(CSc3nnc(Cc4ccccc4)n3-c3cccc(C)c3)n2)c1 -11.9%
CCc1nnc(SCC(=O)Nc2cc(Cl)c(OC)cc2OC)c2cc3oc(C)cc3n12 -16%
COc1cccc(N2CC(NC(=O)COc3ccc4ccccc4c3)CC2=O)c1 (centres undefined) -19.5%
CC1CCC(NC(=O)Cn2ncc3c4ccccc4n(Cc4ccc(Cl)cc4)c3c2=O)CC1 (centres undefined) -13.4%
CC(=O)c1ccc(NC(=O)CCn2nc(C)c(S(=O)(=O)N3CCC(C)CC3)c2C)cc1 2.97%
Cc1ccc(NC(=O)CN2C(=O)CCc3ccccc32)cc1C -15.9%
Cc1ccc(OCc2nc(-c3ccc(C(=O)NCCc4ccc(Cl)cc4)cc3)oc2C)cc1 -20.5%
CCOC(=O)c1c(C)[nH]c(C)c1S(=O)(=O)N1CCCC(C(=O)N2CCN(c3ccccc3F)CC2)C1 (centres undefined) -20.5%
COc1ccc(N2CCN(Cc3nc4c(c(=O)[nH]c(=O)n4C)n3Cc3ccc(C)cc3)CC2)cc1 19.1%
COc1ccc(N(CC(=O)NC(C)c2ccccc2)S(=O)(=O)c2c(C)nn(C)c2C)cc1 (centres undefined) -7.74%
CCc1nn(CC(=O)N2CCN(c3cccc(OC)c3)CC2)c(=O)c2cc3occc3n12 -19.2%
Cc1ccccc1CN1C(=O)c2ccccc2Sc2ccc(C(=O)NC3CCCCC3)cc21 -14%
COc1ccc(NC(=O)c2nn(C)c3c2CS(=O)(=O)c2ccccc2-3)cc1Cl -2.76%
CC(C)Nc1ccc(-c2nc(-c3ccncc3)no2)cc1[N+](=O)[O-] -15.1%
COc1ccc(S(=O)(=O)c2cnc3cc(OC)c(OC)cc3c2N2CCCC(C)C2)cc1 (centres undefined) -6.78%
COc1ccccc1C(=O)N(Cc1nc(-c2cccc(C)c2)no1)C(C)C -27.9%
